# According to the supplement of paper PMC4604168 (melanoma cell lines):
# The other results are listed elsewhere or left out. Many values rest on one well or one pass, so single values are uncertain.
# Columns and labels:
# Assay in all cases: cell count relative to DMSO control; melanoma cells; higher = more viable cells
# Conditions in all cases: library dose: low library concentration; 72 h
# WM115 = test system: WM115
# WM1716 = test system: WM1716
# WM1745 = test system: WM1745
# WM3526 = test system: WM3526
# WM3619 = test system: WM3619
# WM451Lu = test system: WM451Lu
# 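Also: cell number obtained by counting DAPI-stained nuclei in high-throughput microscope images with image analysis software, screen run in 1,536-well plates.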
Compound,cell count (WM115),cell count (WM1716),cell count (WM1745),cell count (WM3526),cell count (WM3619),cell count (WM451Lu)
"OCc1c[nH]c2ccccc12 [Indole-3-carbinol] + Cn1nnc2c(C(N)=O)ncn2c1=O [temozolomide] (first compound 0.8 µM, partner dose 2 µM)",102%,91.9%,94.2%,89.8%,122%,98.1%
"Clc1ccc(Nc2nnc(Cc3ccncc3)c3ccccc23)cc1 [vatalanib] + Cc1cc([N+](=O)[O-])ccc1NS(=O)(=O)c1cc(Cl)ccc1Cl [FH535] (first compound 2 µM, partner dose 1 µM)",93.3%,95.2%,91.3%,77.8%,95.9%,108%
"Clc1ccc(Nc2nnc(Cc3ccncc3)c3ccccc23)cc1 [vatalanib] + NC(=O)Nc1cc(-c2cccc(F)c2)sc1C(=O)N[C@H]1CCCNC1 [AZD7762] (first compound 2 µM, partner dose 0.02 µM)",89.4%,78.4%,89.9%,84.2%,73%,95.3%
"C#Cc1cccc(Nc2ncnc3cc(OCCOC)c(OCCOC)cc23)c1 [erlotinib] + Cn1cncc1[C@@](N)(c1ccc(Cl)cc1)c1ccc2c(c1)c(-c1cccc(Cl)c1)cc(=O)n2C [tipifarnib] (first compound 0.8 µM, partner dose 0.01 µM)",80.2%,79.6%,82.1%,86.6%,75.8%,89.7%
"OCc1c[nH]c2ccccc12 [Indole-3-carbinol] + CCCCCCCCCCCC1=C(O)C(=O)C=C(O)C1=O [Embelin] (first compound 0.8 µM, partner dose 1.2 µM)",107%,73.4%,98.8%,99.9%,105%,106%
